Test results reported in PubChem BioAssay AID624417 (National Center for Advancing Translational Sciences (NCATS), 2012).
Out of some 410,000 compounds screened, about 6,400 (1.6%) were called active. The shares of active, inactive and inconclusive entries below differ from those in the screen. Calls come from the whole dose curve; as a rule, active = well fitted inhibition curve with a large enough effect; inconclusive = small, poorly fitted or top-dose-only effect; inactive = no such curve, though single readings can be large or run the other way. Potencies beside an inconclusive call are fits to weak or partial responses and may not hold up.

target: Glucagon-like peptide 1 receptor (Homo sapiens) (UniProt P43220); assay: qHTS of GLP-1 Receptor Inverse Agonists (Inhibition Mode); conditions: HEK293 GLP-1R CRE-luciferase, luminescence, 24 h, GLP-1R form is constitutively active; activity change, negative = inhibition: at 38.3 µM (top of the series) unless noted; note: nearly all actives have a fitted effect of over 55% in size
Summary of the method: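 Inverse agonists were sought by their lowering of basal cAMP reporter luciferase output in HEK293 cells stably carrying constitutively active human GLP-1R, after 24 h compound treatment.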
% is set by controls: 0 for no effect and ±100 for the full control effect; potency is the fitted concentration of half-maximal effect; tags give direction and shape of the fitted curve.

Sequence of UniProt P43220 (P43220 whole entry, looked up): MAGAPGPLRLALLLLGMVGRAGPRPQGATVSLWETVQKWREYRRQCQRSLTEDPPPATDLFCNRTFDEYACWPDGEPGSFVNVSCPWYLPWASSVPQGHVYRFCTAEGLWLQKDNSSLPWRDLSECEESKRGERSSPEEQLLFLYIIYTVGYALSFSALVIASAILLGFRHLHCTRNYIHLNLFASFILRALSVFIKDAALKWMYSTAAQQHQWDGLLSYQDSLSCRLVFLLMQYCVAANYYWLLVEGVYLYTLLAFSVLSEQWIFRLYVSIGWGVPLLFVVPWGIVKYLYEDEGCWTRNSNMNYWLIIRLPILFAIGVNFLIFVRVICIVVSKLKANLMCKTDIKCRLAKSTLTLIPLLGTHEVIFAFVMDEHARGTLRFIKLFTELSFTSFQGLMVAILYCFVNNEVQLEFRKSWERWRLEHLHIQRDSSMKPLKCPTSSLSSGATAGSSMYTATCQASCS

Potency, active:
Cc1cccc(CN2C(=O)N/C(=C/c3cc(C)n(-c4cc(C)ccn4)c3C)C2=O)c1 10 µM

Potency, inconclusive:
COC(=O)[C@@H](NC(=O)NCCC1=CCCCC1)C(C)C 3.98 µM [inhibitor, partial curve, poor fit], COc1ccc(/C=C(/NC(=O)c2ccccc2)c2nc3ccc(Cl)cc3[nH]2)cc1OC 2.82 µM [inhibitor, partial curve], COc1ccc(-n2c(COc3ccc4ccccc4c3)nnc2SCC(=O)NCc2ccco2)cc1 10 µM [inhibitor, partial curve, poor fit], COC(=O)c1cc(C(=O)OC)n(Cc2ccc(C)cc2)c1C 28.2 µM [inhibitor, single point], COc1ccc(N2CCN(CCCNC(=S)Nc3c(C)cccc3C)CC2)cc1 28.2 µM [inhibitor, single point], COc1ccc(-c2cc(C(F)(F)F)nc(NCc3ccc(F)cc3)n2)cc1 11.2 µM [inhibitor, partial curve, poor fit], CC(C)c1ccc(NC(=O)Cc2cn(C)c3ccccc23)cc1 12.6 µM [inhibitor, partial curve, poor fit], OC(COc1cccc2ccccc12)CN1CCN(c2ccccc2Cl)CC1 (stereo not drawn) 10 µM [inhibitor, partial curve, poor fit], CC(=O)c1ccsc1-c1c(C)cc2oc(=O)cc(-c3ccccc3)c2c1C 28.2 µM [inhibitor, single point], COc1cc(OC)cc(C(=O)N2CCN(Cc3ccccc3[N+](=O)[O-])CC2)c1 28.2 µM [inhibitor, single point], CCc1cc(OCCCCNCc2ccccc2)ccc1Cl 10 µM [inhibitor, partial curve, poor fit], Cc1ccccc1NC(=O)c1cnc2ccccn2c1=O 1 µM [inhibitor, full curve, poor fit], CC1CCCN(C(=O)COC(=O)c2ccc3[nH]c4c(c3c2)CCCC4)C1 (stereo not drawn) 10 µM [inhibitor, partial curve], COc1cc(Br)cc(-c2nc3c(c(=O)[nH]c(=O)n3Cc3ccccc3)n2C)c1O 2.51 µM [inhibitor, partial curve, poor fit]

Activity change, negative = inhibition, inactive:
CCSc1ccc2c(c1)N(CCCN1CCN(C)CC1)c1ccccc1S2 8.19%, O=C(NCCS(=O)(=O)N1CCN(c2ccccc2)CC1)c1cc(=O)c2ccccc2o1 -0.814%

Activity change, negative = inhibition, inconclusive:
CCN(CC)c1ccc(Nc2nc(-c3cccnc3)cs2)cc1 -73.9% [inhibitor]
